Test results: PubChem BioAssay AID2546 (National Center for Advancing Translational Sciences (NCATS), 2010)
Among all 310,000 compounds or so, about 11,000 (3.5%) were called active. Inconclusive means that the source gave no clear call. Such entries were picked first, then a sample of the others. Calls follow the shape of the dose curve; as a rule, active = well fitted inhibition curve with a large enough effect; inconclusive = small, poorly fitted or top-dose-only effect, or effect the other way; inactive = flat fitted curve, though single readings scatter. No potency is given beside an inconclusive call; the fits are too rough.

assay: VP16 counterscreen qHTS for inhibitors of ROR gamma transcriptional activity; settings: Drosophila S2 Gal4-VP16 UAS-luciferase, luminescence, 20 h; activity, negative = inhibition: at 53.6 µM (top of the series);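 also: Gal4-VP16 expression switched on by copper sulfate through the metallothionein promoter; nearly all actives have a fitted effect of over 50% in size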
% is scaled to controls: 0 for no effect and ±100 for the full control effect; potency is read from the fitted curve at half-maximal effect; tags tell the direction and shape of the fitted curve.

Row | Compound | activity, negative = inhibition | Potency
1 | CN(Cc1ccccc1)C(=O)C1CCN(S(=O)(=O)c2cccc3nsnc23)CC1 | inactive: -15.1% | 
2 | O=C(CN(C(=O)CNS(=O)(=O)c1ccccc1)c1ccc(F)cc1)NCc1ccco1 | inactive: -18.6% | 
3 | Cc1ccc(S(=O)(=O)C(C#N)c2nc3ccccc3nc2N2CCN(C)CC2)cc1 (configuration not stated) | inactive: 1.39% | 
4 | CN(C)S(=O)(=O)c1ccc(Oc2ccc(S(=O)(=O)N(C)C)cc2)cc1 |  | active: 3.16 µM
5 | Cc1cc(C)n(CCc2nc(-c3ccc(C)o3)cs2)n1 |  | active: 11.2 µM
6 | Cc1cc(CC(C)CC(C)(C)C)n(O)c(=O)c1 (configuration not stated) |  | active: 3.16 µM
7 | COC(=O)c1ccc(N2CCCCC2)c(N)c1 |  | inconclusive [activator, full curve, poor fit]
8 | Fc1cc(Br)ccc1NC(=S)Nc1ccccc1 |  | inconclusive [inhibitor, single point]
9 | COc1ccc(OCCCC(=O)Nc2ccc3c(c2)OCCO3)cc1 | inactive: -8.38% | 
10 | Cc1cc(C)nc(Nc2n[nH]c(-c3ccccc3Br)n2)n1 |  | inconclusive [inhibitor, single point]
11 | COc1ccc(OC)c(C(=O)CN2CCN(S(=O)(=O)c3ccc(Br)cc3)CC2)c1 |  | inconclusive [inhibitor, single point]
12 | Cc1cc2ccccc2n2c(SCC(=O)N3CCc4ccccc4C3)nnc12 |  | active: 17.8 µM
13 | COc1ccc(NS(=O)(=O)c2ccc(N3CCOCC3)c(NC(=O)c3ccc(OC)cc3)c2)cc1 | inactive: -6.09% | 
14 | CN1CCc2ccc3c4c2[C@]1(C)Cc1cccc(c1-4)OCO3 | inactive: -2.3% | 
15 | COc1ccc(Oc2cc(C(F)(F)F)nc(N(C)C)n2)cc1 | inactive: 11% | 
16 | O=C(NNC(=S)Nc1ccc(Cl)cc1Cl)c1ccc(N2CCOCC2)c([N+](=O)[O-])c1 |  | inconclusive [inhibitor, single point]
17 | Cc1ccccc1C(=O)N1CCc2cc(-c3nc(NC(=O)Cc4ccc5c(c4)OCO5)sc3C)ccc21 |  | inconclusive [inhibitor, full curve, poor fit]
18 | CCOC(=O)COc1ccc(Br)cc1/C=C\c1[nH]c(=O)[nH]c(=O)c1[N+](=O)[O-] | inactive: -6.95% | 
19 | COc1ccc(-c2n[nH]c(=S)n2-c2ccc(Br)cc2)cc1OC |  | inconclusive [inhibitor, single point]
20 | CN(C)c1ccc(/C=N/NC(=O)c2ccccc2Cl)cc1 |  | inconclusive [activator, full curve, poor fit]
21 | Nc1nc(NC(=O)c2ccc(Cl)cc2)nn1-c1ccccc1 |  | inconclusive [inhibitor, single point]
22 | CCc1nn(C(C)C(=O)NC2CCCCCC2)c(=O)c2cc3occc3n12 (configuration not stated) | inactive: 12% | 
23 | C=CCn1c(C)cc(C(=O)COC(=O)[C@@H](NC(=O)c2ccccc2Cl)C(C)C)c1C |  | active: 12.6 µM
24 | COc1ccc2c(c1)[nH]c1c(N3CCSCC3)ncnc12 |  | inconclusive [inhibitor, single point]

Row | Compound | activity, negative = inhibition | Potency
25 | O=C(COC(=O)C1CC(O)CN1S(=O)(=O)c1ccc(Cl)cc1)c1cccc(Cl)c1 (configuration not stated) |  | inconclusive [activator, single point]
26 | CCOC(=O)NC(=S)Nc1ccc(C(C)(C)C)cc1 |  | active: 10 µM
27 | O=C(NC(=S)Nc1cccc([N+](=O)[O-])c1)C1CCCC1 |  | inconclusive [inhibitor, single point]
28 | OCc1ccc(O)c2ncccc12 |  | active: 17.8 µM
29 | Cn1nc(C(F)(F)F)c(/C=N/OC(=O)c2ccccc2Cl)c1SCc1ccc(Cl)cc1 |  | inconclusive [inhibitor, single point]
30 | CCCn1nnc(NC(=O)C(C)C)n1 | inactive: -1.89% | 
31 | O=C(NC(=S)NCCOCc1ccc(Cl)cc1)c1cccnc1 |  | active: 17.8 µM
32 | Cc1cccc(C(=O)O/N=C(\c2ccccc2)c2cccnc2)c1 |  | inconclusive [activator, single point]
33 | Cc1nnc(SCC(=O)c2ccc(Br)cc2)s1 |  | inconclusive [activator, partial curve]
34 | COc1ccc(/C=N/Nc2nc3ccccc3o2)cc1OC |  | inconclusive [inhibitor, single point]
35 | O=C(/C=C/c1ccco1)Nc1ccc(N2CCCC2)cc1 |  | inconclusive [activator, single point]
36 | O=C(NCc1ccccc1)C(c1ccco1)N(C(=O)c1csnn1)C1CC1 (configuration not stated) |  | inconclusive [activator, full curve, poor fit]
37 | O=C(Nc1cc(Sc2nc3ccccc3s2)cc([N+](=O)[O-])c1)c1ccccc1F | inactive: 4.37% | 
38 | CCOC(=O)C1=C(CNC2CCCCC2)NC(=O)NC1c1cc(C)ccc1C (configuration not stated) |  | inconclusive [inhibitor, single point]
39 | CCOc1ccc2nc(NC(=O)c3cnccn3)sc2c1 |  | inconclusive [inhibitor, single point]
40 | CCOc1ccc(NC(=S)Nc2ccc(OC(F)(F)F)cc2)cc1 |  | inconclusive [inhibitor, single point]
41 | COC(=O)c1ccc(C2C(Oc3ccccc3)C(=O)N2CCc2ccc(F)cc2)cc1 (configuration not stated) |  | inconclusive [inhibitor, single point]
42 | CCN(CC)CCCNC(=O)c1cc2c(-c3ccc(Cl)cc3)nn(C)c2s1 |  | inconclusive [inhibitor, partial curve]
43 | COc1ccc(NC(=O)CCCN(C)S(=O)(=O)c2ccc(C)cc2)cc1 | inactive: -4.88% | 
44 | CCOC(=O)c1c(C)[nH]c(C(=O)OC/C(O)=C(\C#N)c2nc3ccccc3[nH]2)c1C |  | inconclusive [inhibitor, single point]
45 | CN(C)CCNC(=O)/C(=C/c1ccc(-c2cccc(Cl)c2)o1)NC(=O)c1ccccc1 |  | inconclusive [inhibitor, single point]
46 | COCC(=O)Nc1nc2ccc(C)cc2s1 |  | inconclusive [inhibitor, single point]
47 | COc1ccccc1C1NC=C([N+](=O)[O-])C=C1[N+](=O)[O-] (configuration not stated) |  | inconclusive [inhibitor, single point]
